Measured values: PMC12040169 (PLOS Biology, 2025)
Some of the results follow.

Tested on: T1, C. trachomatis L2/434/Bu expressing GFP (CTL2-GFP)
T1 construct: L2/434/Bu GFP intracellular growth in HeLa cells
Design: species or system HeLa; C. trachomatis total inclusion area by high-content imaging, normalised to DMSO
Settings: total inclusion area; 28.5 h, 10 µM; inhibitor
Summary of the method: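 Following bulk GFP and resorufin fluorescence reads, infected cells were fixed, Hoechst-stained and imaged on a high-content platform. Inclusion total area and number per well served as growth proxies; nuclei counts indicated host viability. MICs were derived as for the fluorescence assay.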

| SMILES | % of control remaining |
| --- | --- |
| O=C(c1cccs1)N1CCCC1c1nc2ccccc2[nH]1 (stereo not shown) [CBK284006] | 97.0384 |
| COc1cc(/C=C2\SC(=S)N(Cc3cccnc3)C2=O)ccc1OCc1cccc2ccccc12 [CBK264624] | 91.216 |
| COc1ccc(C(C)c2cc3c(cc2OCCO)OCO3)c(F)c1 (stereo not shown) [CBK200111] | 28.8401 |
| CSc1nc(C(=O)N2CCCCC2c2cccc(F)c2)cs1 (stereo not shown) [CBK306732] | 58.2725 |
| CSc1ccccc1C(=O)Nc1sc2c(c1C#N)CCN(C(C)=O)C2 [CBK304183] | 8.741 |
| Cn1ccnc1C(NC(=O)N1CCOc2ccc(Cl)cc2C1)C1CC1 (stereo not shown) [CBK307212] | 51.397 |
| Cl/C(=C\c1ccccc1)CN1CCOCC1 [CBK261892] | 86.5471 |
| O=C(NCCCN1CCOCC1)/C(=N\O)c1ccccn1 [CBK288366] | 64.3332 |
| Cc1cc(C(=O)N2CCC(F)CC2)n[nH]1 [CBK200277] | 98.6504 |
| COc1ccc(C(=O)CSc2nnc(-c3ccccc3)c3ccccc23)cc1OC [CBK297088] | 93.7288 |
| CCc1cc(=O)[nH]c(-c2ccc(N3CCCC3C(=O)N(C)C)nc2)n1 (stereo not shown) [CBK304197] | 89.9964 |
| O=C(O)CCCNC(=O)COc1ccccc1OCC(=O)NCCCC(=O)O [CBK296089] | 101.033 |
| CCN1C(=O)CC2(C1=O)C(=O)N(Cc1nnc(-c3ccc(C)cc3)o1)c1ccc(OC)cc12 (stereo not shown) [CBK075586] | 89.8144 |
| O=C(O)c1cccc(NS(=O)(=O)c2ccc(Br)cc2C(F)(F)F)c1 [CBK155724] | 87.5775 |
| O=C(COc1ccc([N+](=O)[O-])cc1)Nc1ccc(CN2CCCCC2)cc1 [CBK266204] | 127.159 |
| COC(=O)Cn1cc(CN2CC3CCCN3C[C@H]2C)c2ccccc21 (stereo partly shown) [CBK285436] | 108.084 |
| COc1cccc(CNCCO)c1OCc1ccccc1F [CBK266594C] | 80.223 |
| COc1cccc(CN2CCN(C(=O)N3CCCCC3)[C@@H](C)C2)c1 [CBK284266] | 66.2292 |
| O=C(c1cncnc1)N1CCC2(CCCNC2)C1 (stereo not shown) [CBK153237C] | 100.405 |
| Nc1ncc(-c2ccc(F)cc2)c(C2CCCN(C(=O)CCc3ccc(F)cc3)C2)n1 (stereo not shown) [CBK286092] | 98.6874 |
| O=[N+]([O-])c1ccc(-c2nc3ccc(Br)cn3[n+]2[O-])cc1 [CBK262335] | 102.695 |
| CCn1c(N2CCC(C(=O)NC3CC3)CC2)nc2ccccc21 [CBK283922] | 92.285 |
| CC(=O)Nc1ccc(N2C(=O)CC(NCCCN3CCOCC3)C2=O)cc1 (stereo not shown) [CBK265236] | 105.857 |
| O=C(Nc1ccc(S(=O)(=O)Nc2ccc(Cl)cc2)cc1)c1ccc(Cn2cc(Br)cn2)o1 [CBK265764] | 57.6321 |
| Nc1ncc(-c2ccco2)nc1N1CCC(C(=O)O)CC1 [CBK063440] | 94.5014 |
| COCC(=O)NC(Cc1ccsc1)c1nc(C)cs1 (stereo not shown) [CBK282804] | 76.807 |
| OCCN1CCN(c2nc(-c3ccc4c(c3)OCO4)cn3ccnc23)CC1 [CBK037443] | 89.951 |

| SMILES | % of control remaining |
| --- | --- |
| Cc1ccc(CN[C@@H]2CCC(=O)N[C@H]2c2cc(F)cc(F)c2)o1 [CBK283128] | 94.9452 |
| CC(C)(C)NC(=O)C[C@@H]1CCNC[C@@H]1Cc1cc(-c2ccc(F)cc2)on1 [CBK288802] | 89.4707 |
| Cc1cc(C)n(CC(=O)N2CCC(Nc3cccnn3)CC2)n1 [CBK306234] | 58.8857 |
| Cc1c(C(=O)NC2(c3ccc(F)cc3)CCCC2)cnn1C [CBK283978] | 91.9002 |
| Nc1cc2cccnc2c(-c2cccc(C(F)(F)F)c2)n1 [CBK081177] | 103.682 |
| Cc1ccc(CO)cc1NC(=O)[C@@H]1CN(Cc2ccccc2)C[C@H]1C(=O)c1ccc(F)cc1 [CBK286431] | 79.6649 |
| CCCC/C=C/c1cnc(N)c(Nc2ccc3[nH]ccc3c2)n1 [CBK063811] | 134.987 |
| COc1ccc2c(ccn2CC(=O)NC[C@H]2CC[C@H](C(=O)O)CC2)c1 [CBK286687] | 37.6824 |
| CCn1nc2c(C)cc3cc(OC)ccc3n2c1=O [CBK283823] | 70.6629 |
| COc1cccc(CCN2CCC(C(=O)NC(C)c3cccc4ccccc34)CC2)c1 (stereo not shown) [CBK148650] | 73.1164 |
| Cc1nnc2n1CCN(CC1CCCCO1)C2 (stereo not shown) [CBK304267] | 55.619 |
| Cc1ccc2cc(CN(Cc3ccccc3)C(=O)NCc3c(Cl)cccc3Cl)c(=O)[nH]c2c1C [CBK132088] | 96.8828 |
| CC(C)(C)OC(=O)N1CCN(c2ccc(N)cn2)CC1 [CBK003463] | 76.779 |
| CC(=O)NCCSc1cccc(C(F)(F)F)n1 [CBK105299] | 96.9062 |
| O=[N+]([O-])c1ccc(/C=N/CCCN2CCOCC2)cc1 [CBK261058] | 88.2999 |
| COc1ccccc1-c1ccc(CN(C)Cc2ccccc2N2CCOCC2)cc1 [CBK286108] | 69.0354 |
| O=C1NC2CCCCC2NC1CC(=O)N1CCN(C(c2ccccc2)c2ccccc2)CC1 (stereo not shown) [CBK269201] | 113.739 |
| COc1ccc(C(=O)N2CCC3(CC2)NC(=O)c2ccc(C(F)(F)F)cc2O3)cc1OC [CBK166265] | 65.4139 |
| COc1ccc(CC(=O)Nc2cccc(OC(F)(F)F)c2)cc1OC [CBK296734] | 52.3478 |
| O=C(COc1ccccc1)NCc1ccc(OC2CCNCC2)cc1 [CBK028425T] | 88.2567 |
| COC(=O)c1cccc(Cn2cc(/C=C\[N+](=O)[O-])c3ccccc32)c1 [CBK269020] | 79.1819 |
| COc1ccc(C(=O)Nc2ccc(N3CCN(C(=O)C(C)(C)C)CC3)cc2)cc1OC [CBK270245] | 101.796 |
| Cc1ccc2nsnc2c1NC(=O)CN1CCN(c2ccc(F)cc2)CC1 [CBK269231] | 73.1925 |
| Cc1ccccc1-c1ccccc1CC1(C(=O)N(C)C)CCN(C(=O)C2CC=CCC2)CC1 (stereo not shown) [CBK285733] | 100.768 |
| CCOC(=O)C1CCCN(CCC(=O)Nc2cccc(F)c2)C1 (stereo not shown) [CBK264275C] | 91.7269 |
| CC(=O)N1CC(C(=O)N2CC3(CCCC3)c3c(F)cccc32)C1 [CBK306292] | 87.46 |
| CN1CCc2c(sc3c2C(=O)NC(/C=C\c2ccc([N+](=O)[O-])cc2)N3)C1 (stereo not shown) [CBK262909] | 116.541 |

| SMILES | % of control remaining |
| --- | --- |
| Cc1cccc(C)c1NC(=O)CC(C(=O)O)N(C)C (stereo not shown) [CBK267022] | 117.559 |
| Cc1ccc(OCC(=O)Nc2ncc(Cc3ccc(F)cc3)s2)cc1 [CBK293930] | 102.902 |
| CN(C)CCN(C)C(=O)c1ccc(-c2ccccc2CO)nc1N(C)C [CBK076591] | 105.384 |
| O=C(CSc1nnc(-c2ccccc2O)o1)c1ccc(Cl)cc1 [CBK068032] | 62.6987 |
| C(=N\c1ccc(Cc2ccncc2)cc1)/c1ccc(/C=N/c2ccc(Cc3ccncc3)cc2)cc1 [CBK262137] | 95.0049 |
| O=C(CCc1ccc(F)cc1)N1CCCC(c2cccc(Cc3ccccc3F)n2)C1 (stereo not shown) [CBK286512] | 88.5613 |
| Cc1cc(NC(=O)CN2CC(C(=O)N3CCN(c4ccccc4)CC3)C2)no1 [CBK285665] | 87.3243 |
| CC(Oc1ccccc1)C(=O)Nc1ccc(C(=O)O)cc1 (stereo not shown) [CBK287154] | 101.675 |
| Fc1ccc2c(ccn2CCCN2CCN(c3ccncc3)CC2)c1 [CBK043645G] | 112.234 |
| N#Cc1ccc(-c2cc(N3CCN(C(=O)c4ccco4)CC3)ncn2)cc1 [CBK037813] | 62.8978 |
| O=C(Nc1ccccc1)N[C@H]1CO[C@H]2[C@@H]1OC[C@H]2OC(=O)Nc1ccccc1 [CBK289465] | 105.727 |
| Cc1ccc(CN2C[C@H]3C(=O)Nc4ccccc4C(=O)N[C@@]3(C)C2)o1 [CBK284706] | 57.7454 |
| COc1ccc(CCCC(=O)Nc2cc3ccccc3c(N3CCNCC3)n2)cc1OC [CBK028417T] | 100.362 |
| Cc1ccc(C2c3c(oc4ccccc4c3=O)C(=O)N2CCCCCC(=O)O)cc1 (stereo not shown) [CBK287158] | 102.031 |
| Cc1cnn(CC(=O)N2CCCCC2CN2CCCCCC2)c1 (stereo not shown) [CBK282103] | 128.043 |
| COc1ncc(-c2nc(NC(=O)Cc3cc(F)c(F)c(F)c3)cnc2-c2cccc(C)c2)c(OC)n1 [CBK036717] | 83.6947 |
| O=C(Nc1nccc(N2CCNCC2)n1)C1CCCC1 [CBK004302T] | 68.9978 |
| Cc1[nH]c2ccccc2c1C(=O)N1CCC(CC(=O)N2CCN(c3ccccc3)CC2)CC1 [CBK286033] | 110.076 |
| N#Cc1cccc(-n2cc(-c3ccc(Br)cc3F)nn2)c1 [CBK113143] | 90.4718 |
| O=C(O)CCc1ccc(-c2ccc(F)cc2)n1NC(=O)c1ccco1 [CBK268853] | 81.3266 |
| O=C(NCCc1ccccc1)N(Cc1ccc(-c2ccccc2)cc1)CC1CCNCC1 [CBK049792] | 95.85 |
| CN1CCCc2c1oc1c(OCc3cccnc3)cccc1c2=O [CBK007904] | 95.043 |
| CN(C)CCCC(=O)Nc1ccc2c(ccn2Cc2ccccc2)c1 [CBK159740] | 73.9431 |
| CN1CCc2nc(SCc3cccnc3)c(C#N)cc2C1 [CBK267463] | 101.225 |
| Cc1ccc(C(C)C)c(OCC(=O)N2CCN(Cc3nc4cc([N+](=O)[O-])ccc4n3C)CC2)c1 [CBK268519] | 80.1339 |
